# Test results reported in paper PMC4336329 (PLoS ONE, 2015).
# About 14,000 (4.5%) of roughly 310,000 compounds showed an effect of 50% or more. Effects have a minus sign here. This is one part of the list.
# Target: human ether-à-go-go-related gene (hERG) potassium channel (human, UniProt Q12809)
# Experiment: primary screen, population patch clamp on CHO cells stably expressing hERG
# 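Further: peak tail current of the secondary pulse compared with the same well before compound.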
# Sequence of human ether-à-go-go-related gene (hERG) potassium channel (Q12809 whole entry, looked up): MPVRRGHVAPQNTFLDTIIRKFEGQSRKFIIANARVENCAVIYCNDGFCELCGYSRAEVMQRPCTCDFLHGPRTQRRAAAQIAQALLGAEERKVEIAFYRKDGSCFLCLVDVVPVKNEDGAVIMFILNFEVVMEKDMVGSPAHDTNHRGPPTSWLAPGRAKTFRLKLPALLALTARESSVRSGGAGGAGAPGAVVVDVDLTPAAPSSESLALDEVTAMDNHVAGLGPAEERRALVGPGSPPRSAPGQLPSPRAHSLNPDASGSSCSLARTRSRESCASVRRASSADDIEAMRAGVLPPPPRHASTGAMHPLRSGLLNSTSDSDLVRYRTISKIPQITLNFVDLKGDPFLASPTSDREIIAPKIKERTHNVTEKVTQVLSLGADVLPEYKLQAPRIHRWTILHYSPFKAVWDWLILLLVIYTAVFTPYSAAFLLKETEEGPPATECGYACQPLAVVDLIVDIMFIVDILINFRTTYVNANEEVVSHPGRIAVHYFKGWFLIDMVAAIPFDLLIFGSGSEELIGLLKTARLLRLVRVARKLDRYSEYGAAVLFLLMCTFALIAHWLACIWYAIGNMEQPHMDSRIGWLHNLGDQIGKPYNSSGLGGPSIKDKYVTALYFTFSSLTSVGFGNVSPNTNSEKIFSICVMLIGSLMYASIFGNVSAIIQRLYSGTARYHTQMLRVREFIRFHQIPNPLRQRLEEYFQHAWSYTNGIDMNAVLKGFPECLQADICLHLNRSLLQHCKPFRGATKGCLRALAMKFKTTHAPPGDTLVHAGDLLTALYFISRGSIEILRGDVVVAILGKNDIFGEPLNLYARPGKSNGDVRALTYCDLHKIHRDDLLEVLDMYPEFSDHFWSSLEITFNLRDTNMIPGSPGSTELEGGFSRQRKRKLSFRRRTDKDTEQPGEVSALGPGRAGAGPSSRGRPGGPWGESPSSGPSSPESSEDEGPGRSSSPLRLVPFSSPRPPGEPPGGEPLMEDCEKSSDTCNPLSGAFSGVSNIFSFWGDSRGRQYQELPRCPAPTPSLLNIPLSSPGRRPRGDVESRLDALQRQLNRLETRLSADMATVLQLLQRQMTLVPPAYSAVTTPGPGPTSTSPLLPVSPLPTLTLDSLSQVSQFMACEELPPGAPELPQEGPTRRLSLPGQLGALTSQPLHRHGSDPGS
row,SMILES,"hERG current change (%, negative = inhibition) at 10uM [%]"
1,CC(C)(C)n1nnnc1C(c1cccs1)N1CCCC2(CCCCC2)C1 (centres unmarked),-1.31
2,O=C1CC(c2nc3ccccc3[nH]2)CN1c1ccccc1 (centres unmarked),-12.8
3,CCN(CC)S(=O)(=O)c1ccc(N2CCCC2)c(NC(=O)C2CCCCC2)c1,5.05
4,O=C(O)CN(Cc1ccco1)S(=O)(=O)c1ccccc1,11.6
5,COc1cc(C(C)=O)ccc1OCC(=O)Nc1ccc(Cl)c(S(=O)(=O)N2CCOCC2)c1,-66.7
6,CCOC(=O)CCCn1ccc2cc(S(=O)(=O)N3CCCC3)ccc21,-17.4
7,C=CC[n+]1ccn(-c2nc3ccccc3nc2[N-]S(=O)(=O)c2cccs2)c1,10.5
8,O=C(CCCOc1ccccc1)OCn1nnc2ccccc2c1=O,16.2
9,Cc1ccc(S(=O)(=O)N2CCN(C(=O)c3cc4c(s3)CCCC4)CC2)c(C)c1,0.0922
10,Cc1ccc(NC(=O)CNC(=O)c2ccc(Oc3ccccc3)cc2)nc1,4.34
11,O=C(Nc1cccnc1)c1ccc([N+](=O)[O-])s1,-20.1
12,O=C(Nc1cccnc1)c1ccc(Cl)c(S(=O)(=O)N2CCCCCC2)c1,-31.6
13,COc1cc(C(=O)NCC2CCCO2)cc(OC)c1OC (centres unmarked),16.8
14,NC(=O)CN(C/C=C/c1ccccc1)C/C=C/c1ccccc1,20.6
15,CCC(C)[C@H](NC(=O)C1CC(=O)N(c2ccc3c(c2)OCO3)C1)C(=O)NC1CCCCC1 (some centres unmarked),29
16,CCN(CC)C(=O)CSc1nc2[nH]ncc2c(=O)[nH]1,1.09
17,CO/N=C/c1cccn1-c1nccc(OC)c1C#N,19.1
18,CCOC(=O)c1ccccc1NC(=O)CN1C(=O)NC(C)(CCc2ccccc2)C1=O (centres unmarked),-33.2
19,CCOC(=O)N1CCN(c2ccc(C(F)(F)F)cn2)CC1,-4.3
20,CCCN(Cc1nc2cc(Cl)ccc2c(=O)[nH]1)C(=O)c1ccc(S(=O)(=O)N2CCCC2)cc1,-39.2
21,CCN(CC)CC.CCOc1ccccc1-n1c(=S)sc2c(=O)n(-c3ccccc3)c(=S)[nH]c21,26.5
22,COc1ccc(C(=O)Nc2cccc3cccnc23)cc1OC,2.81

row,SMILES,"hERG current change (%, negative = inhibition) at 10uM [%]"
1,CCOC(=O)c1sc(NC(=O)c2ccco2)nc1C,13.3
2,O=C(O)c1csc(-c2ccccc2)n1,6.74
3,COc1ccc(C(=O)OCC(=O)NCCCc2ccccc2)cc1[N+](=O)[O-],-17.2
4,COC(=O)c1[nH]c2ccc(Br)cc2c1NC(=O)C(C)N1CCN(C2CCCCC2)CC1 (centres unmarked),-78.2
5,CCN(CC(=O)Nc1ccc(NC(C)=O)cc1)CC(=O)Nc1ccc(F)c(Cl)c1,-2.92
6,Cc1ccc(-n2ncc(C(=O)Nc3cc(Cl)ccc3Cl)c2C2CCNCC2)cc1.Cl,-62
7,Cc1c(Cl)cccc1NC(=O)Cc1cccs1,15
8,CCCCn1nc(NC(=O)CCC)c2cc3cc(OC)ccc3nc21,-3.42
9,Cc1ccc(C)c(OCC(=O)Nc2c(C)n(C)n(-c3ccccc3)c2=O)c1,3.41
10,Cc1ccc(C(=O)N2CCCC(N3CCN(c4ccccc4C)CC3)C2)c(=O)[nH]1 (centres unmarked),-18.1
11,CC(C)/C=C/CN1CCN(CCCc2ccccc2)C(CCO)C1 (centres unmarked),-73.4
12,O=C(c1ccco1)N1CCCN(Cc2cn[nH]c2-c2ccc(-c3ccccc3)cc2)CC1,-59.3
13,CC(C)(C)NC(=O)C(c1ccc(F)cc1)N(C(=O)CCC(=O)Nc1ccccn1)C1CCCC1 (centres unmarked),-9.2
14,CCCCNc1cc(C(=O)O)cc(S(N)(=O)=O)c1Oc1ccccc1,-7.67
15,Cc1ccc(-c2nc3[nH]c(=O)cc(NC(=O)c4cccs4)n3n2)cc1,-6.07
16,CCOC(=O)Cn1nc(/C=C/c2ccc(C)cc2)ccc1=O,5.68
17,COc1cc(C(=O)NCCN2C(=O)S/C(=C\c3ccc(F)cc3)C2=O)ccc1OCC(=O)N1CCOCC1,2.84
18,Cc1c(C(c2cccc(Br)c2)c2c(C)n(C)n(-c3ccccc3)c2=O)c(=O)n(-c2ccccc2)n1C.Cl,-1.15
19,O=C(C1=C(O)C(=O)N(Cc2ccco2)C1c1cccc(O)c1)c1ccco1 (centres unmarked),12.8
20,COc1ccc2nc(SCC(=O)N3CCCCC3)c(C#N)cc2c1,-2.33
21,COc1ccccc1C(=O)N1CCN(c2ccccn2)CC1,-22.8
22,O=C(NC1CCCCC1)[C@@H]1CC=C[C@@H]2CCN(C3CCCCC3)C(=O)[C@@H]21,3.97

row,SMILES,"hERG current change (%, negative = inhibition) at 10uM [%]"
1,O=C(CCNc1ccc(F)c(Cl)c1)c1ccco1,-3.88
2,NS(=O)(=O)c1ccc(CNC(=O)C(Cc2ccccc2)NS(=O)(=O)c2ccccc2F)cc1 (centres unmarked),9.99
3,Cc1ccc(S(=O)(=O)N/N=C/c2ccc(OS(=O)(=O)c3ccc(C)c([N+](=O)[O-])c3)cc2)cc1,7.76
4,CC(NC(=O)c1cccs1)c1ccc(Cl)cc1 (centres unmarked),-36.1
5,COC(=O)c1ccccc1NC(=O)COc1ccccc1[N+](=O)[O-],3.55
6,COCCNC(=O)c1cc2c(=O)n3cccc(C)c3nc2n1C,11.7
7,CCSc1nnc(NS(=O)(=O)c2ccc(OC)cc2)s1,13.4
8,FC(F)(F)c1cc(Cl)c2nnc(-c3cccnc3)n2c1,9.97
9,O=S(=O)(NC1c2cccc3cccc(c23)C1N1CCNCC1)c1ccccc1 (centres unmarked),-27.2
10,O=C(Cc1cccs1)Nc1cccc(-c2ccc3nncn3n2)c1,-28.4
11,Cc1ccc(N(C(=O)c2ccc(S(=O)(=O)N3CCOCC3)cc2)C2C=CS(=O)(=O)C2)cc1 (centres unmarked),3.58
12,CCOC(=O)c1c(-c2ccccc2)csc1NC(=O)CSc1nncs1,-3.32
13,COc1cc(CNc2ccc3c(c2)CCC3)cc(OC)c1O,12.2
14,Nn1cnc2c([nH]c3ccccc32)c1=O,-0.0281
15,O=C(O)c1oc2ccc(Br)cc2c1-n1cccc1,13.4
16,Cc1ccc2[nH]cc(CCNC(=O)CN3C(=O)c4ccccc4C3=O)c2c1,-26.1
17,CCSc1nc2c(c(=O)[nH]1)C(c1ccncc1)C(C(=O)OC(C)C)=C(C)N2 (centres unmarked),6.44
18,Clc1cccc(C2CCN(Cc3nc(COc4ccccc4)no3)C2)c1 (centres unmarked),-40.7
19,CN(C)S(=O)(=O)c1cccc(COC(=O)Cc2c(F)cccc2Cl)c1,9.75
20,C/C(=N\NC(=O)c1nn(C)cc1Br)c1ccncc1,-0.642
21,CCOC(=O)N1CCN(C(=O)c2cc(COc3cccc(C(F)(F)F)c3)on2)CC1,-76.7
22,CCc1ccc(Oc2cc(C)nc(N)n2)cc1,-1.75

row,SMILES,"hERG current change (%, negative = inhibition) at 10uM [%]"
1,CC(C)CN(C(=O)COC(=O)Cc1c[nH]c2ccccc12)C1CCS(=O)(=O)C1 (centres unmarked),13.6
2,O=[N+]([O-])c1ccc(N2CCCC2)cc1N1CCCC1,1.62
3,COc1ccc2nc3c(nc2c1)CCCC3,0.0196
4,Cc1ccc(C(=O)c2c3ccc(C(F)(F)F)cc3nn2CCC(N)=O)cc1,-5.81
5,CCn1c(CSc2nnc(-c3ccncc3)n2C)nc2cc(C(=O)O)ccc21,16.5
6,CCCCn1c(N)c(N(CC)C(=O)c2ccc3c(c2)S(=O)(=O)c2ccccc2C3=O)c(=O)[nH]c1=O,8.41
7,N/C(=N\OC(=O)CCC1CCCCC1)c1ccc([N+](=O)[O-])cc1,-8.1
8,Cc1cc(C)cc(NC(=O)C2(c3ccccc3)CC2(Cl)Cl)c1 (centres unmarked),-9.57
9,Cc1[nH]c(C(=O)N/N=C/c2ccc(C(=O)O)cc2)c(C)c1C(=O)N/N=C/c1ccc(C(=O)O)cc1,-15.7
10,Cc1ccc(O)c(C(=O)c2cnn(C(=O)COc3ccc(Cl)cc3)c2)c1,-0.932
11,Cc1cc2oc(=O)cc(CN3CCN(S(=O)(=O)c4cccs4)CC3)c2cc1C,-5.34
12,CCOc1ccc(C(=O)N(CN2CCCC2=O)c2ccccc2)cc1,6.89
13,COc1ccc(NC2=C(C(C)=O)C(c3ccc(OC)cc3)C(C(C)=O)C(C)(O)C2)cc1 (centres unmarked),24.3
14,CC(=O)Cc1cc(O)c2ccccc2c1OC(=O)c1ccc(Br)cc1,-4.46
15,O=C(NC1CC2CCC1C2)c1ccco1 (centres unmarked),-5.69
16,O=C(CNc1cccc(C(F)(F)F)c1)N/N=C/C1CCCCC1,21.5
17,CC(=O)c1cc(C#N)c(N2CCN(c3ccccc3)CC2)nc1C,7.12
18,C/C(CC(=O)Nc1cccc(Cl)c1Cl)=N\NC(=O)C(=O)N1CCCC1,3.99
19,Cc1cccc(N(C(=O)CNC(=O)c2ccco2)C(C(=O)NC2CCCC2)c2cccnc2)c1 (centres unmarked),3.99
20,Cc1cc(C)c(S(=O)(=O)N2CCOC2CNC(=O)C(=O)NCCCn2ccnc2)c(C)c1 (centres unmarked),-8.31
